Here are results for 49 compounds from PMC6919601, “Identification of Plasmodium dipeptidyl aminopeptidase allosteric inhibitors by high throughput screening” (PLoS ONE, 2019).

Each structure is given as a SMILES string. Values joined by “and” are separate entries in the source; they are usually repeats but may differ in a detail not shown here. Equal values may be shown once. About 230 (0.21%) of roughly 110,000 compounds showed an effect of 50% or more. The list shows a part of the results.
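Further: 30 min substrate incubation versus DMSO and 10 µM JCP410 controls.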

The target in this assay is DPAP1 (Plasmodium falciparum, UniProt Q8IIJ9). Kind of assay: primary screen, percent inhibition; read by cleavage of a fluorogenic dipeptide substrate; higher = more effect of the substance. More on the design: species or system P. falciparum D10 trophozoite lysates; single well.
DPAP1, sequence (Q8IIJ9 whole entry, looked up): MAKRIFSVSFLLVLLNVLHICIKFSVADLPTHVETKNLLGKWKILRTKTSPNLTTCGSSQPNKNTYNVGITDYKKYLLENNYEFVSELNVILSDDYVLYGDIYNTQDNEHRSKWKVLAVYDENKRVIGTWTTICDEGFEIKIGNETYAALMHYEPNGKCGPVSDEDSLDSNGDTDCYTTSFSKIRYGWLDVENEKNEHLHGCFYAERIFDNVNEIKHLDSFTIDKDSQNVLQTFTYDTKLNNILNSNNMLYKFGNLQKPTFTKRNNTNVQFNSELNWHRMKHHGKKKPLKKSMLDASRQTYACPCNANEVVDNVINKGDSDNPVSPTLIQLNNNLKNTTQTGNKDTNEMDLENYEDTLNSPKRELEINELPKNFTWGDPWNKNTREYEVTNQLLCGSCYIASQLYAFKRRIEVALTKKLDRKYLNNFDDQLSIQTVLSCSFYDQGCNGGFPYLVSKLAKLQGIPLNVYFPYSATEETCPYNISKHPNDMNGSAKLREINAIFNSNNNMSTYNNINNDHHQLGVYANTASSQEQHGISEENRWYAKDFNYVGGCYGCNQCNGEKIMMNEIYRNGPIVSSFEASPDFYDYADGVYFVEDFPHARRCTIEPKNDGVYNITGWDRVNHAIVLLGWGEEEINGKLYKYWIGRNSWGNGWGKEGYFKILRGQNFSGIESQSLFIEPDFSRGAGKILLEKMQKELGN
Consider `CCCCN(CC)C(=O)C(C(=O)c1ccc(F)cc1)n1ccccc1=O` (stereo not shown), for which the “% Inhibition @ 10 uM” value is listed as -6.71%. With `Cc1sc(NC(=O)c2ccc(F)cc2)c(C(=O)O)c1C`, the “% Inhibition @ 10 uM” value is -2.89% and 2.64%. On to `C/C(=N\O)c1ccc(OCCOc2ccc(C#N)cc2)cc1`, for which the “% Inhibition @ 10 uM” value was -8.3%. On to `COC(=O)c1cccc(-c2ccc(/C=C3/NC(=O)N(Cc4ccccc4F)C3=O)o2)c1C`, for which the “% Inhibition @ 10 uM” value is listed as -1.81%. For `Cn1c(C(=O)NCCC2=CCCCC2)cc2oc3ccccc3c21`, the “% Inhibition @ 10 uM” value was -2.17%. Next, `CCOC(=O)c1c(C)nc2c(c1-c1ccc(Cl)cc1)C(=O)CC(C)(C)C2`: -1.77%; `CCCC[C@H](NS(=O)(=O)c1ccccc1)C(=O)NCC#N`: -3.97%. Take `COc1ccc(OC)c(C(C)NC(=O)c2ccccc2Br)c1` (stereo not shown): the “% Inhibition @ 10 uM” value was 14.1%. `O=C(O)c1ccc2nc(N3CCCCC3)sc2c1`: the “% Inhibition @ 10 uM” value is reported as 17.8%. For the compound `CCn1nc(CC(=O)O)c2ccccc2c1=O`, the “% Inhibition @ 10 uM” value is -4.71%. The figure for `C=C(C)[C@@H]1CC=C(CN2CCN(c3ccccc3F)CC2)CC1` is -2.21%; for `COc1ccc(OC)c(C2=NOC(C(=O)N3CCC(C)CC3)C2)c1` (stereo not shown) it is -2.16%.

As for `Nc1n[nH]c(-c2ccccc2Cl)n1`, the “% Inhibition @ 10 uM” value stood at 0.166%. `Cc1cc(-c2ccccc2)[n+]2oc(C)cc2n1`: the “% Inhibition @ 10 uM” value turned out to be 3.61%. As for `CCOc1cc(S(=O)(=O)NC2CC(C)(C)NC(C)(C)C2)c(C)cc1C`, the “% Inhibition @ 10 uM” value was -1.36%. Consider `COc1cc2c(cc1OC)C(C)N(C(=S)NCc1ccccc1)CC2` (stereo not shown), for which the “% Inhibition @ 10 uM” value is -7.23%. Take `COc1ccc(-c2[nH]nc3c2C(c2cc(Cl)c(O)c(OC)c2)C(C#N)=C(N)O3)cc1` (stereo not shown): the “% Inhibition @ 10 uM” value is recorded as 5.48%. With `CC(=O)c1cccc(NC(=O)c2ccncc2)c1`, the “% Inhibition @ 10 uM” value was -4.16%. Take `CN1C(=O)/C(=C/c2ccc(F)cc2)C(=O)N(c2ccccc2)C1=O`: the “% Inhibition @ 10 uM” value amounted to 4.08%. Next, `CS(=O)(=O)C1=NN2C(=N)/C(=C\c3ccc(-c4ccccc4)o3)C(=O)N=C2S1`: 5.06%; `Cc1ccc(O)c(C2=NN3C(C2)c2ccccc2OC3C(C)C)c1` (stereo not shown): -1.68%; `CC(=O)c1c(C)n(-c2ccc(C)cc2C)c2ccc(O)cc12`: 3.06%. On to `COc1ccc2[nH]c3c(=O)n(CCCCC(=O)N(C)C4CCCCC4)c(=S)[nH]c3c2c1`, for which the “% Inhibition @ 10 uM” value was -5.76%. Consider `COc1ccccc1[C@H]1SC[C@@H](C(=O)O)N1C(C)=O`, for which the “% Inhibition @ 10 uM” value came out at 2.09%. Consider `Cc1cc(-c2noc(-c3ccc(Br)o3)n2)c2ccccc2n1`, for which the “% Inhibition @ 10 uM” value amounted to 32.2%. Next, `Cc1ccc(NCN2C(=O)C3CCC(C)CC3C2=O)cc1` (stereo not shown): -3.9%; `Cc1nn(CC(=O)NCCCN2CCCC2=O)c(=O)c2cc3sccc3n12`: 3.4%; `Cc1ccc2nc(NC(=O)C3CC4CCC3C4)sc2c1` (stereo not shown): -2.22%. In the case of `Fc1ccc(CN2CCN(C/C=C/c3ccccc3)CC2)c(F)c1`, the “% Inhibition @ 10 uM” value is -1.86%.

For `CCC(C)(C)c1ccc(OCC(O)CN2CCOCC2)c(C(C)(C)CC)c1` (stereo not shown), the “% Inhibition @ 10 uM” value was determined as 3.16%. With `N#C/C(=C(/O)c1ccc(Br)cc1)c1nc2ccccc2s1`, the “% Inhibition @ 10 uM” value is given as 0.983%. The figure for `Cn1c2ccccc2c2c(C(=O)NCCN3CCOCC3)cn(C3CCCC3)c(=O)c21` is -3.39%; for `C=CCSC1=C(C#N)C(c2ccc(OC)c(OC)c2)CC(=O)N1` (stereo not shown) it is -5.34%; for `CCOc1ccc(OCCn2c(SCCOc3ccccc3)nc3c(N)ncnc32)cc1` it is -4.02%.

Consider `Cc1onc(-c2ccccc2)c1C(=O)NC1CCCCCCC1`, for which the “% Inhibition @ 10 uM” value is reported as -4.18%.

As for `CCC(C)NC(=O)C1CCN(c2nnc(-n3c(C)ccc3C)s2)CC1` (stereo not shown), the “% Inhibition @ 10 uM” value amounted to 2.76%.

Consider `CCOc1ccc(-c2nc(S)c3c(n2)Oc2cc(O)ccc2C3)cc1`, for which the “% Inhibition @ 10 uM” value is reported as -0.883%. With `CC1=C(C#N)C(c2ccc(N(C)C)cc2)C2=C(O)CC(C)(C)CC2=N1` (stereo not shown), the “% Inhibition @ 10 uM” value is reported as 0.51%.

As for `CN1CCN(C(=O)CN(c2cccc(Cl)c2)S(=O)(=O)c2ccc(Cl)cc2)CC1`, the “% Inhibition @ 10 uM” value was found to be 3.21%. Take `C=CCNC(=O)/C(=C/c1ccccc1)NC(=O)c1ccc(Br)o1`: the “% Inhibition @ 10 uM” value is on record as 8.23%.

As to `CCN(CC)CCNc1nc(/C=C/c2ccc(Cl)cc2)nc2cc3ccccc3cc12`, the “% Inhibition @ 10 uM” value is -6.83%.

On to `CCOC(=O)C1=C(C)N=c2s/c(=C\c3ccc(C)cc3)c(=O)n2C1c1ccc(OC)c(OC)c1` (stereo not shown), for which the “% Inhibition @ 10 uM” value is recorded as 7.62%. In the case of `COCCNC(=O)Cn1ncc2c(C)n(Cc3ccccc3F)c(C)c2c1=O`, the “% Inhibition @ 10 uM” value stood at 4.4%. For the compound `O=c1c2cnn(-c3ccc(F)cc3)c2ncn1Cc1ccc(Cl)cc1Cl`, the “% Inhibition @ 10 uM” value is -1.75%. In the case of `O=C1CC(N2CCCCCCC2)C(=O)N1c1ccc(Br)cc1` (stereo not shown), the “% Inhibition @ 10 uM” value was -6.48%. On to `CNC(=O)CCCCCN1C(=O)c2ccccc2C1=O`, for which the “% Inhibition @ 10 uM” value is 2.01%.

Regarding `CC(C)CC(=O)Nc1ccc(S(=O)(=O)N2CCC(C)CC2)cc1`, the “% Inhibition @ 10 uM” value is on record as -3.45%.

For `CC(C)C[C@H](NC(=O)c1ccc(-c2cccc(O)c2)cc1)C(=O)NCC#N`, the “% Inhibition @ 10 uM” value was determined as 19.1%. Next, `Cc1cccc(C)c1OCc1nc2c3c4c(sc3ncn2n1)CCCC4`: 2.94%.
